Experimental data as given in PubChem BioAssay AID488969 (Vanderbilt High Throughput Screening Facility, 2010).
Over roughly 110,000 compounds, “z-score” has its median near -0.1; the highest 2% begin near 2. The list shows a part of the results.

molecular target: Metabotropic glutamate receptor 8 (Rattus norvegicus) (UniProt P70579); experiment: mGluR8 Gi/Go-coupled signaling modulation – cell-based, rat, thallium flux, HTS, primary screen (AID 488969); details: HEK293 rat mGluR8, GIRK (G protein-gated inwardly rectifying potassium channel) thallium flux, FluoZin2; at 10 µM; stronger effect = higher value; submaximal glutamate (EC20) added with thallium
UniProt P70579, sequence (P70579 whole entry, looked up): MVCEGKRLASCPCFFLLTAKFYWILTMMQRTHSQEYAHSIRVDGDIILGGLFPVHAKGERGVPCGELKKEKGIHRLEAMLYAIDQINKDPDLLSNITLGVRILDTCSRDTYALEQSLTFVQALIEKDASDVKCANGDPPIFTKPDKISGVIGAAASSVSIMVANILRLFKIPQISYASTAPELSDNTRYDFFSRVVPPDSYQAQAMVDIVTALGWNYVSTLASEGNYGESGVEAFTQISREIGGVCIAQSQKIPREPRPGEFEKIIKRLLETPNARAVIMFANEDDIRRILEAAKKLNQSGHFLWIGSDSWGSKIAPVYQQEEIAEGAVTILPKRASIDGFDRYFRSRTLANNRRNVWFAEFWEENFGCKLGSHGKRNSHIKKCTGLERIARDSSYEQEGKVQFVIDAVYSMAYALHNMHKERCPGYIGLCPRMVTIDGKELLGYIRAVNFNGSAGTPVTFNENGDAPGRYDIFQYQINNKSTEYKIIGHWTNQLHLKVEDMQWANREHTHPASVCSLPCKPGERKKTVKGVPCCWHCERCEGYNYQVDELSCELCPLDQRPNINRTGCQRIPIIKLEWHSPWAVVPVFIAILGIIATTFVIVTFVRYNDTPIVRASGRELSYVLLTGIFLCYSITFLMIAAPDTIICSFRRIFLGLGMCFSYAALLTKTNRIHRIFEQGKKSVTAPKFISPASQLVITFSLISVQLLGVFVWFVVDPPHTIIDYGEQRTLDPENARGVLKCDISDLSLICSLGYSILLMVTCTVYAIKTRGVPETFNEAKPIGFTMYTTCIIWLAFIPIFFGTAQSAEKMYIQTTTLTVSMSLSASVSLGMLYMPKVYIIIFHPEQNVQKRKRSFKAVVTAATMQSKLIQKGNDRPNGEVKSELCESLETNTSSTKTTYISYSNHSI

| Structure (SMILES) | z-score |
| --- | --- |
| CCOC(=O)CC1ON(C)C(=O)N1c1ccc(Cl)cc1Cl (configuration not stated) | -0.877 |
| CS(=O)(=O)N(CC(=O)NC1CCCC1)c1cccc(F)c1 | 0.185 |
| O=C(CCSc1nc(-c2ccco2)cc(C(F)(F)F)n1)NCc1ccccn1 | -0.409 |
| CC[n+]1c(/C=C/C=C/N(C(C)=O)c2ccccc2)sc2ccccc21 | -1.67 |
| c1ccc(Cc2nc3ccccc3o2)cc1 | 0.245 |
| Cc1ccc(C(=O)Nc2nc3ccc(S(C)(=O)=O)cc3s2)o1 | -0.275 |
| [2H]c1c([2H])c([2H])c(-c2nc(N3CCCCCC3)sc2C(=O)c2ccccc2)c([2H])c1[2H] | -0.0335 |
| O=C(CN(c1ccccc1F)S(=O)(=O)c1ccccc1)N1CCCCCC1 | 0.433 |
| N#Cc1nc(COc2ccccc2)oc1N1CCN(Cc2ccccc2)CC1 | -0.0798 |
| COc1cc(C(c2c(C)[nH][nH]c2=O)c2c(C)[nH][nH]c2=O)ccc1OCc1ccc([N+](=O)[O-])cc1 | -0.18 |
| CCn1c(SCC(=O)C(C)(C)C)nnc1-c1cnccn1 | 0.117 |
| CCOc1ccc(NC(=O)c2cn(CC(C)C)c(=O)c3c2c2ccccc2n3C)cc1 | 0.279 |
| Cc1ccc(NC2(C(F)(F)F)N=C(c3ccccc3)NC2=O)nc1 (configuration not stated) | -0.269 |
| CCCn1nc(NC(=O)CC(C)C)c2cc3ccccc3nc21 | -1.32 |
| Cc1nn2c(-c3ccco3)nnc2c2ccccc12 | -0.178 |
| Cc1ccc(NC(=O)CN2C(=O)S/C(=C\c3cccn3-c3cccc(C(=O)O)c3)C2=O)c(C)c1 | -2 |
| CC1CCN(C(=O)CN(C)S(=O)(=O)c2cccc3nsnc23)CC1 | -0.0898 |
| COc1ccc(/C=C/C(=O)Nc2nc(C)c(C(=O)N(C)C)s2)cc1 | -0.338 |
| O=C(COC(=O)c1cc(C(F)(F)F)cc(C(F)(F)F)c1)NCc1ccc(Cl)cc1 | 0.113 |
| O=C(CCN1CCOCC1)NCC1COc2ccccc2O1 (configuration not stated) | 1.03 |
| C=CCc1ccccc1OCC(O)CN1CCN(Cc2ccc3c(c2)OCO3)CC1 (configuration not stated) | 0.628 |
| C#CCOc1c(Br)cc(/C=N/O)cc1OCC | -0.156 |

| Structure (SMILES) | z-score |
| --- | --- |
| O=C(COc1ccc(-c2ccccc2)cc1)N/N=C/c1cc(O)ccc1Br | 0.307 |
| COc1ccc(-c2c(C#N)c(N)nc3c2c(=O)n(C)c(=O)n3C)cc1Cl | 0.525 |
| C[N+](C)(C)CCOC(=O)C1(c2ccccc2)CCCC1 | -0.367 |
| CCC1CCC/C1=N\NC(=O)CCC(=O)Nc1ccccc1Cl (configuration not stated) | -0.352 |
| COc1ccc(S(=O)(=O)N(C)CC(=O)Nc2ccccc2OC)cc1C | -0.0507 |
| COC(=O)C1CCN(c2nc3ccccc3nc2C(C#N)C(=O)NCCc2ccccc2)CC1 (configuration not stated) | -0.0188 |
| CC(=O)c1c(C(C)=O)c(C)n(-c2ccc(N)c(C)c2)c1C | 0.143 |
| Cc1ccc(-n2c(C)cc(/C=N/NC(=O)CC3(C)OCCO3)c2C)cc1 | -0.17 |
| Cc1ccccc1NC(=O)c1cc(S(=O)(=O)c2ccccc2)ccc1Cl | -0.163 |
| CC(=O)Nc1ccc(C(=O)CS(=O)(=O)c2ccc(C)cc2)cc1 | -0.547 |
| COc1ccc(N(CC(=O)NN=C2CCCCCCC2)S(=O)(=O)c2ccccc2)cc1Cl | -0.145 |
| Fc1cc(F)cc(-c2oncc2-c2nnnn2-c2ccccc2)c1 | -0.177 |
| CCOc1ccc(OCC)c(NC(=O)CN2CCN(c3cc(C)ccc3C)CC2)c1 | 0.261 |
| Cn1c2c(c(=O)[nH]c1=O)C(NC(=O)c1ccco1)(C(F)(F)F)C(=O)N2 (configuration not stated) | -0.0598 |
| Cc1nn(C(C)(C)C)c(OC(=O)c2ccc3c(c2)OCO3)c1S(=O)(=O)c1ccccc1 | -0.639 |
| CCc1ccc(N2C(=O)C3NN=C(C(=O)OCc4ccccc4)C3C2=O)cc1 (configuration not stated) | -0.335 |
| COC(=O)Cn1c(SCc2ccccc2)nc2ccccc21 | 0.329 |
| Cc1cccc(CS(=O)(=O)c2nnc([C@H](Cc3ccccc3)NC(=O)OC(C)(C)C)o2)c1 | -0.919 |
| CC(=O)c1c(N2CCN(C(=O)c3ccco3)CC2)nc(=S)n(-c2ccccc2)c1C | 0.0296 |
| CC1CCC(NC(=O)C2CCN(c3cnccn3)CC2)CC1 (configuration not stated) | -0.0711 |
| Cc1ccc(NC(=O)c2cc(C(=O)c3cc(Cl)ccc3O)cn(-c3ccc(C)cc3)c2=O)cc1 | 0.328 |
| O=C(N[C@@H](Cc1ccccc1)c1nc2ccccc2[nH]1)c1cc([N+](=O)[O-])ccc1Cl | -0.361 |

| Structure (SMILES) | z-score |
| --- | --- |
| Cc1cc(C)n(-c2ccc(C(=O)OCC(=O)Nc3ccccc3[N+](=O)[O-])cc2)n1 | 0.0982 |
| Cc1oc(-c2ccccc2F)nc1CS(=O)(=O)CC(=O)N1CCN(c2ccccc2)CC1 | -0.734 |
| Cc1ccc(NC(=O)CN2CCC(NC(=O)Cc3ccccc3)CC2)c(C)c1 | 0.169 |
| CC(C)(C)C(=O)Nc1ccc(C(=O)NNC(=O)Cc2ccccc2)cc1 | 0.00171 |
| O=c1c(Oc2ccccc2F)coc2cc(OCc3cnn(-c4ccccc4)c3)ccc12 | 0.0288 |
| CC(=O)c1cc2c(cc1NC(=O)C1CC=CCC1C(=O)O)OCO2 (configuration not stated) | -0.0123 |
| CN(C)CC(C)(C)CNS(=O)(=O)c1ccc(Cl)c(Cl)c1 | 0.338 |
| O=C(CSc1ncnc2ccccc12)N1CCN(c2ccccc2)CC1 | -0.0217 |
| CCOC(=O)c1c(-c2cccc([N+](=O)[O-])c2)csc1NC(=O)C1CCCCC1 | -0.116 |
| Cc1ccc(N2C(=O)CC(C3CCCO3)C2=O)cc1 (configuration not stated) | -0.153 |
| Cc1cccc(OCC(=O)N/N=C/CC(C)c2ccccc2)c1C (configuration not stated) | -0.0322 |
| COc1ccc(NC(=O)CCN2CCCCCC2)cc1 | -0.0238 |
| O=C(CSc1ncn[nH]1)Nc1ccccc1-c1ccccc1 | 0.14 |
| CCOc1ccc(Cc2nnc(SCC(N)=O)n2C)cc1 | -0.104 |
| CN1/C(=C\C(=O)Nc2cccc(Cl)c2)C(C)(C)c2ccccc21 | 0.127 |
| Cc1ccc(C(=O)N/C(=C/c2ccc(-c3cc(C(F)(F)F)ccc3Cl)o2)C(=O)NCc2cccnc2)cc1 | -0.199 |
| Cc1cc(N2C(=O)c3ccc(C(=O)NCc4ccccc4)cc3C2=O)no1 | -0.278 |
| Cc1ccc(C2C(=O)N(C3CCC(C)CC3)CC(=O)N2C2CCCC2)cc1 (configuration not stated) | -0.164 |
| O=C(OC(C(=O)NC1CCCC1)c1cccnc1)C1=Cc2ccccc2OC1 (configuration not stated) | -0.178 |
| Cc1ccc(NC(=O)O/N=C2\CCCCC2c2ccc([N+](=O)[O-])cc2[N+](=O)[O-])cc1 (configuration not stated) | -0.539 |
| O=C(Nc1ccccc1C(F)(F)F)NC1CCCCC1 | 0.343 |
| C/C(=N\S(=O)(=O)c1ccc(C)cc1)N1CCN(S(=O)(=O)c2ccccc2)C1 | 0.0756 |

| Structure (SMILES) | z-score |
| --- | --- |
| Cc1cc(C)n(-c2nc(C)nc(N)n2)n1 | 0.0243 |
| CCCCC(CC)C(=O)Nc1ccccc1C#N (configuration not stated) | 0.525 |
| c1ccc(Cn2nnnc2CN2CCN(c3ncccn3)CC2)cc1 | 0.366 |
| O=C(NC1=NCCS1)c1ccc(Cl)s1 | 1.35 |
| CC1CCCCN1S(=O)(=O)c1ccc(N(C(=O)c2cnccn2)C(C(=O)NC2CCCCC2)c2cccs2)cc1 (configuration not stated) | -0.263 |
| COC(=O)c1[nH]c2cc(OC)ccc2c1NC(=O)CN1CCN(c2cccc(C)c2)C(C)C1 (configuration not stated) | -0.284 |
| CC1CCN(C(=O)CSc2nnc(-c3cc4ccccc4cc3O)n2Cc2ccco2)CC1 | -1.69 |
| CC(C)CCNC(=O)NC(=O)CSc1nnc2ccccn12 | 0.0329 |
| O=C(CSc1nc(C2CC2)nc2ccccc12)N1c2ccccc2Sc2ccccc21 | 0.0302 |
| CCCn1c(CN2CCN(C)CC2)nc2ccccc21 | -0.31 |
| Cc1csc(SCC(=O)Nc2cccc3nsnc23)n1 | -0.0818 |
| Clc1cccc(Cl)c1CSc1nnc(-c2sccc2-n2cccc2)o1 | -0.0528 |
| C/C(=N\NC(=O)c1ccn(C)n1)c1ccc(NC(=O)C2CCCC2)cc1 | 0.533 |
| Cc1ccc(S(=O)(=O)CC2CSc3nc4ccccc4n32)cc1 (configuration not stated) | -0.024 |
| CCn1c(SCC(=O)N/N=C/c2ccc(C)s2)nc2ccccc21 | 0.177 |
| COc1ccccc1N1CCN(C(=O)COc2ccc(C)cc2Br)CC1 | 0.883 |
| C=CCNC(=O)c1ccccc1NS(=O)(=O)c1ccc(SC)cc1 | 0.228 |
| Cc1cccc(NC(=O)c2sc(-c3ccccc3)nc2-c2ccc([N+](=O)[O-])cc2)c1 | -0.653 |
| O=S(=O)(NCCc1csc(-c2ccccc2)n1)c1ccc2c(c1)OCCO2 | -1.46 |
| Cc1csc(NC(=O)CCS(=O)(=O)c2ccc(Br)cc2)n1 | 0.039 |
| O=C(NCc1ccco1)c1ccc(COCC(F)(F)F)cc1 | -0.0156 |
| C=CCNC(=S)NNC(=O)c1cccn(Cc2ccc(Cl)cc2Cl)c1=O | -0.116 |

| Structure (SMILES) | z-score |
| --- | --- |
| CCn1c(SCC(=O)N2CCCCC2C)nc2ccsc2c1=O (configuration not stated) | -1.46 |
| O/N=C(\COc1ccccc1O)c1ccccc1 | -0.203 |
| Cc1sc2ncnc(OCC(=O)N3CCN(S(=O)(=O)c4ccc(Cl)cc4)CC3)c2c1C | -0.334 |
| CCOC(=O)c1c(NC(=O)C2CC2)sc(C)c1CC | -0.5 |
| COc1ccccc1NC(=S)NC(=O)c1ccc(-c2ccc(Cl)cc2)o1 | 1.42 |
| CCOc1ccc(NS(=O)(=O)c2ccc(NC(=O)C3CCCO3)cc2)cc1 (configuration not stated) | -0.278 |
| CCn1c(N2CCN(C(=S)NC)CC2)nc2ccccc21 | -0.0787 |
| O=C1CCCC2=C1C(c1ccccc1)n1c(s/c(=C/c3cccc(F)c3)c1=O)=N2 (configuration not stated) | 1.06 |
| N#C/C(=C\c1ccccc1)c1nc2ncccc2[nH]1 | -0.196 |
| C=CCC1c2cccc(C(=O)O)c2C(=O)N1c1ccc(Cl)cc1 (configuration not stated) | -0.148 |
| c1ccc(Sc2ncnc3c2oc2ccccc23)nc1 | 0.585 |
| CCCCN(C)C(=S)Nc1ccc(Oc2ccccc2)cc1 | 1.42 |
| Cc1ccc(S(=O)(=O)Cc2nc3ccccc3c(=O)[nH]2)cc1 | -0.19 |
| CC(C)c1ccc(C(=O)CC2(O)C(=O)N(CN3CCOCC3)c3ccccc32)cc1 (configuration not stated) | 0.818 |
| COc1cccc(C(=O)O/N=C(\N)c2ccncc2)c1 | -0.198 |
| CCOc1ccccc1Oc1c(C)oc2cc(OC(=O)c3ccco3)ccc2c1=O | -0.141 |
| Cc1ccc(CSC2=NCCN2C(=O)C2CC2)cc1 | -0.574 |
| CCc1nnc(NC(=O)CCC(=O)N2CCN(CCOc3ccc(C)cc3)CC2)s1 | 0.475 |
| CC(C)(C)n1ncc2c(=O)n(CC(=O)c3ccc(Cl)cc3)cnc21 | 0.583 |
